Assay results published in PubChem BioAssay AID504706 (National Center for Advancing Translational Sciences (NCATS), 2011).
The campaign covered roughly 320,000 compounds. About 200 (0.062%) were called active. This list was built around the results that the source calls inconclusive (neither active nor inactive); the mix of calls is not that of the screen. Calls follow the shape of the dose curve; as a rule, active = well fitted activation curve with a large enough effect; inconclusive = small, poorly fitted or top-dose-only effect; inactive = no such curve, though single readings can be large or run the other way. Potencies of inconclusive entries are left out as doubtful fits.

Assay: qHTS assay for re-activators of p53 using a Luc reporter; also: nearly all actives have a fitted effect of over 45% in size; as to activity change, positive = activation: % of control where 0% means no effect
Settings: H1299 p53-A138V BP100-luciferase reporter, luminescence, 24 h; series mostly up to 92.2 µM; activity change, positive = activation: at the top concentration
Summary of the method: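 H1299 (p53-null), stable ts p53-A138V + BP100-Luc; 1000 cells/well, Opti-MEM/10% FBS; cpd 4 pt, 1:5; 24 h, 37 deg C, 5% CO2; detection reagent 10 min RT; luminescence.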
Potency is read from the fitted curve at half-maximal effect; tags tell the direction and shape of the fitted curve.

SMILES	activity change, positive = activation	Potency
Cc1ccc2nc(SCC(=O)N3c4ccccc4CC3C)c(C)cc2c1 (centres undefined)	inactive: 2.54%	–
COc1ccc(-c2cc3ccc(OCC(C)=O)cc3oc2=O)cc1	–	inconclusive [activator, partial curve, poor fit]
CCOC(=O)c1ccc2ncc(-c3ccccc3)nc2c1	–	inconclusive [activator, single point]
O=C(NCCSc1ccccc1)c1ccccc1Cl	–	inconclusive [activator, full curve]
COc1cc(-c2nnc(NC(=O)CCS(=O)(=O)c3ccccc3)o2)cc(OC)c1OC	inactive: -20.1%	–
COc1ccc(C(=O)C[n+]2ccc(N(C)C)cc2)cc1	inactive: -0.565%	–
Cc1ccc(-c2nc(C3CCN(S(C)(=O)=O)CC3)no2)cc1	–	inconclusive [activator, single point]
O=c1cc(-c2ccc(F)cc2F)[nH]c2ccccc12	inactive: -2.85%	–
CCc1c(C)sc(NC(=O)c2cc(C)no2)c1C#N	–	inconclusive [activator, full curve, poor fit]
O=C(COC(=O)c1cccc2ccccc12)Nc1ncc(C(F)(F)F)cc1Cl	inactive: 0.492%	–
CCCc1nnc(SCC(=O)N2CCOCC2)n1C	–	inconclusive [activator, single point]
O=C(Nc1ccccc1)Nc1cccc2cccnc12	–	inconclusive [activator, partial curve, poor fit]
Cc1ccc(-c2nc3cnccn3c2Nc2ccccc2)o1	–	inconclusive [activator, partial curve, poor fit]
CC(C)(C)Nc1nc(Cl)nc(Nc2ccccc2)n1	–	inconclusive [activator, partial curve, poor fit]
COc1ccccc1CC(=O)NC1CC(C)(C)NC(C)(C)C1	–	inconclusive [activator, partial curve, poor fit]
c1ccc(OCc2nc(-c3ccccc3)no2)cc1	–	inconclusive [activator, partial curve, poor fit]
Nc1cccc(-c2nc3ccccc3s2)c1	–	inconclusive [activator, partial curve, poor fit]
CC(=O)Nc1cccc(-c2csc(Nc3cc(C)ccn3)n2)c1	–	inconclusive [activator, partial curve, poor fit]
CCOc1ccc(NC(=O)Cn2sc3nc(C)cc(C)c3c2=O)cc1	inactive: -8.55%	–
Oc1ccc(-c2n[nH]c(=S)n2Cc2ccco2)cc1	inactive: -5.24%	–
Cc1ccc2nc(-c3ccc(NC(=O)CSc4ccccc4)cc3)[nH]c2c1	–	inconclusive [activator, single point]
CCOC(=O)c1cnc(-c2ccccc2)nc1N	–	inconclusive [activator, partial curve, poor fit]

SMILES	activity change, positive = activation	Potency
Cc1cccc(-c2noc(CCc3ccccc3)n2)c1	–	inconclusive [activator, partial curve, poor fit]
CC(=O)Nc1ccc(OCC(=O)N(CC(C)C)C2CCS(=O)(=O)C2)cc1 (centres undefined)	–	inconclusive [activator, single point]
Cc1ccc(CSC2=Nc3ccccc3C3=NC(CC(=O)NCc4ccco4)C(=O)N23)cc1 (centres undefined)	–	inconclusive [activator, partial curve, poor fit]
CCSc1ncc(/C=N/Nc2ccc(Cl)cc2)n1C	–	inconclusive [activator, partial curve, poor fit]
Cc1cccc(/C=N\Nc2cn[nH]c(=O)c2Cl)c1	inactive: -1.78%	–
CC(=O)n1nc(-c2ccc(C)cc2)nc1NCc1ccc(F)cc1	–	inconclusive [activator, single point]
Brc1ccc(-n2cnc(-c3ccccc3)c2)cc1	–	inconclusive [activator, partial curve, poor fit]
CCOC(=O)C1CCN(C(=O)NS(=O)(=O)c2ccc(C)cc2)CC1	–	inconclusive [activator, partial curve, poor fit]
Cc1ccc(C(=O)O/N=C(\N)Cc2cccs2)c(Cl)c1	–	inconclusive [activator, single point]
Cc1nc2ccccc2c(=O)n1CC(=O)N1CCOCC1	–	inconclusive [activator, single point]
COc1ccc(OC)c(N/C(N)=N/c2nc(C)cc(C)n2)c1	–	inconclusive [activator, single point]
CC(=O)c1cc2c(cc1NC(=O)c1ccc(C)cc1)OCCO2	inactive: 3.86%	–
COc1ccc(CC(=O)N2CCCC(C)C2)cc1 (centres undefined)	–	inconclusive [activator, partial curve, poor fit]
O=C1CCCc2c1sc1nc3n(c(=O)c21)CCCCC3	–	inconclusive [activator, partial curve, poor fit]
CNc1sc(C(=O)c2ccc(F)cc2)c(N)c1-c1nc2ccccc2s1	–	inconclusive [activator, single point]
CC(C)c1ccc(Nc2ncccc2C#N)cc1	–	inconclusive [activator, partial curve, poor fit]
CC(=O)Nc1sc(N/N=C\c2ccccc2)nc1-c1cccs1	–	inconclusive [activator, partial curve]
CCOC(=O)Nc1cccc(C(=O)O)c1	–	inconclusive [activator, partial curve, poor fit]
O=C(NCC(c1ccccc1Cl)N1CCCC1)c1ccc(N2CCCC2=O)cc1 (centres undefined)	–	inconclusive [activator, full curve]
Cc1ccc(N=Nc2cc(C)ccc2O)c(C)c1	–	inconclusive [activator, full curve, poor fit]
O=C(O)c1ccc(NC(=O)c2ccccc2NC(=O)c2cccc(F)c2)cc1	–	inconclusive [activator, partial curve, poor fit]
Cc1cc(C)n(-c2nc(-c3ccccc3)cs2)n1	–	inconclusive [activator, partial curve]
